Here are results for three molecules from publication PMC5791736.

Amino acid sequences for entries named in this document (tags omitted). A change or cut given only in a name is not applied to a line headed by its entry. Residues count along the entry.
UniProt O95166: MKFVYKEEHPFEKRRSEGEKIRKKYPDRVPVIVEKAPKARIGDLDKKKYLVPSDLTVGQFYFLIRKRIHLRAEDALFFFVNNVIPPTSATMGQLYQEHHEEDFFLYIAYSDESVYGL
UniProt Q9BXW4, residues 1-126: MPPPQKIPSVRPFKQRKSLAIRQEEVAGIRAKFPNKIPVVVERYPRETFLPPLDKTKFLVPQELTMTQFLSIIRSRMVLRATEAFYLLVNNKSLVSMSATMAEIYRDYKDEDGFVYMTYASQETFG

Results are given in words; binding and its absence hold for the method and conditions named. Binding seen in cells or lysates may run through a third protein. Some results given as binding are weak or reduced against the parent protein; the word gives no strength. Tags and fused reporters may be left off the sequences shown.

Holding throughout (assay): pull-down; GST fusion of the ATG8 ortholog batch pre-purified on glutathione Sepharose 4B beads, incubated with HEK lysate of transfected tagged CCPG1 in IGEPAL IP buffer (50 mM Tris-HCl pH 7.5, 150 mM NaCl, 0.5% IGEPAL), 4°C, 2-18 h; immunoblot; only the target purified
The target of assay [1] is GST-GABARAP (human) (UniProt O95166).
Assay [2] addresses GST-LC3C (human) (UniProt Q9BXW4).
Assay [3] addresses GST-GABARAP mtLDS Y49A L50A (human) (UniProt O95166).

B1: myc-CCPG1 (full-length, 6x myc) (protein, UniProt Q9ULG6 1-757)
chain: MSENSSDSDSSCGWTVISHEGSDIEMLNSVTPTDSCEPAPECSSLEQEELQALQIEQGESSQNGTVLMEETAYPALEETSSTIEAEEQKIPEDSIYIGTASDDSDIVTLEPPKLEEIGNQEVVIVEEAQSSEDFNMGSSSSSQYTFCQPETVFSSQPSDDESSSDETSNQPSPAFRRRRARKKTVSASESEDRLVAEQETEPSKELSKRQFSSGLNKCVILALVIAISMGFGHFYGTIQIQKRQQLVRKIHEDELNDMKDYLSQCQQEQESFIDYKSLKENLARCWTLTEAEKMSFETQKTNLATENQYLRVSLEKEEKALSSLQEELNKLREQIRILEDKGTSTELVKENQKLKQHLEEEKQKKHSFLSQRETLLTEAKMLKRELERERLVTTALRGELQQLSGSQLHGKSDSPNVYTEKKEIAILRERLTELERKLTFEQQRSDLWERLYVEAKDQNGKQGTDGKKKGGRGSHRAKNKSKETFLGSVKETFDAMKNSTKEFVRHHKEKIKQAKEAVKENLKKFSDSVKSTFRHFKDTTKNIFDEKGNKRFGATKEAAEKPRTVFSDYLHPQYKAPTENHHNRGPTMQNDGRKEKPVHFKEFRKNTNSKKCSPGHDCRENSHSFRKACSGVFDCAQQESMSLFNTVVNPIRMDEFRQIIQRYMLKELDTFCHWNELDQFINKFFLNGVFIHDQKLFTDFVNDVKDYLRNMKEYEVDNDGVFEKLDEYIYRHFFGHTFSPPYGPRSVYIKPCHYSSL
B1: the binding entry in assay [1] and in assay [2] was “binds” in each case.

B2: GFP-CCPG1 (full-length) (protein, UniProt Q9ULG6 1-757)
chain: MSENSSDSDSSCGWTVISHEGSDIEMLNSVTPTDSCEPAPECSSLEQEELQALQIEQGESSQNGTVLMEETAYPALEETSSTIEAEEQKIPEDSIYIGTASDDSDIVTLEPPKLEEIGNQEVVIVEEAQSSEDFNMGSSSSSQYTFCQPETVFSSQPSDDESSSDETSNQPSPAFRRRRARKKTVSASESEDRLVAEQETEPSKELSKRQFSSGLNKCVILALVIAISMGFGHFYGTIQIQKRQQLVRKIHEDELNDMKDYLSQCQQEQESFIDYKSLKENLARCWTLTEAEKMSFETQKTNLATENQYLRVSLEKEEKALSSLQEELNKLREQIRILEDKGTSTELVKENQKLKQHLEEEKQKKHSFLSQRETLLTEAKMLKRELERERLVTTALRGELQQLSGSQLHGKSDSPNVYTEKKEIAILRERLTELERKLTFEQQRSDLWERLYVEAKDQNGKQGTDGKKKGGRGSHRAKNKSKETFLGSVKETFDAMKNSTKEFVRHHKEKIKQAKEAVKENLKKFSDSVKSTFRHFKDTTKNIFDEKGNKRFGATKEAAEKPRTVFSDYLHPQYKAPTENHHNRGPTMQNDGRKEKPVHFKEFRKNTNSKKCSPGHDCRENSHSFRKACSGVFDCAQQESMSLFNTVVNPIRMDEFRQIIQRYMLKELDTFCHWNELDQFINKFFLNGVFIHDQKLFTDFVNDVKDYLRNMKEYEVDNDGVFEKLDEYIYRHFFGHTFSPPYGPRSVYIKPCHYSSL
For B2, the binding entry in assay [1] is “binds”.

B3: myc-CCPG1 NTD (domain or fragment, UniProt Q9ULG6 1-230)
chain: MSENSSDSDSSCGWTVISHEGSDIEMLNSVTPTDSCEPAPECSSLEQEELQALQIEQGESSQNGTVLMEETAYPALEETSSTIEAEEQKIPEDSIYIGTASDDSDIVTLEPPKLEEIGNQEVVIVEEAQSSEDFNMGSSSSSQYTFCQPETVFSSQPSDDESSSDETSNQPSPAFRRRRARKKTVSASESEDRLVAEQETEPSKELSKRQFSSGLNKCVILALVIAISMG
Regarding B3, the binding entry in assay [1] was “binds”; in assay [3], “no binding”.
